Measurements reported in the supplement of paper PMC8728848.
This is one part of the list.

Experiments:
Assay in all cases: glycan array binding signal (z-score within array); higher = stronger binding
Settings in all cases: glycan notation: IUPAC condensed, linker removed
[1] = biological target: GlcNAc(b1-3)Gal(b1-4)GlcNAc(b1-2)Man(a1-3)[GlcNAc(b1-3)Gal(b1-4)GlcNAc(b1-2)Man(a1-6)]Man(b1-4)GlcNAc(b1-4)[Fuc(a1-6)]GlcNAc
Procedure, shortened: (§1)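 Columns mapping to the same glycan were averaged after glycan names were converted to IUPAC-condensed notation. The data come from 3228 arrays in the Consortium for Functional Glycomics database, limited to those with an available protein sequence. Binding is reported as a within-array Z-score averaged across arrays of one protein sequence and across linkers.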

[2] = biological target: GlcNAc(b1-3)Gal(b1-4)GlcNAc(b1-2)[GlcNAc(b1-3)Gal(b1-4)GlcNAc(b1-6)]Man(a1-6)[GlcNAc(b1-3)Gal(b1-4)GlcNAc(b1-2)Man(a1-3)]Man(b1-4)GlcNAc(b1-4)GlcNAc
Procedure, shortened: as §1

[3] = biological target: GlcNAc(b1-3)Gal(b1-4)GlcNAc(b1-3)Gal(b1-4)GlcNAc
Procedure, shortened: as §1

[4] = biological target: GlcNAc(b1-3)Gal(b1-4)GlcNAc(b1-3)Gal(b1-4)GlcNAc(b1-2)Man(a1-3)[GlcNAc(b1-3)Gal(b1-4)GlcNAc(b1-3)Gal(b1-4)GlcNAc(b1-2)Man(a1-6)]Man(b1-4)GlcNAc(b1-4)GlcNAc
Procedure, shortened: as §1

[5] = biological target: GlcNAc(b1-3)Gal(b1-4)GlcNAc(b1-3)Gal(b1-4)GlcNAc(b1-2)Man(a1-3)[GlcNAc(b1-3)Gal(b1-4)GlcNAc(b1-3)Gal(b1-4)GlcNAc(b1-2)Man(a1-6)]Man(b1-4)GlcNAc(b1-4)[Fuc(a1-6)]GlcNAc
Procedure, shortened: as §1

[6] = biological target: GlcNAc(b1-3)Gal(b1-4)GlcNAc(b1-3)Gal(b1-4)GlcNAc(b1-2)[GlcNAc(b1-3)Gal(b1-4)GlcNAc(b1-3)Gal(b1-4)GlcNAc(b1-6)]Man(a1-6)[GlcNAc(b1-3)Gal(b1-4)GlcNAc(b1-3)Gal(b1-4)GlcNAc(b1-2)Man(a1-3)]Man(b1-4)GlcNAc(b1-4)[Fuc(a1-6)]GlcNAc
Procedure, shortened: as §1

[7] = biological target: GlcNAc(b1-3)Gal(b1-4)GlcNAc(b1-3)Gal(b1-4)GlcNAc(b1-3)Gal(b1-4)GlcNAc(b1-2)Man(a1-3)[GlcNAc(b1-3)Gal(b1-4)GlcNAc(b1-3)Gal(b1-4)GlcNAc(b1-3)Gal(b1-4)GlcNAc(b1-2)Man(a1-6)]Man(b1-4)GlcNAc(b1-4)GlcNAc
Procedure, shortened: as §1

[8] = biological target: GlcNAc(b1-3)Gal(b1-4)GlcNAc(b1-3)Gal(b1-4)GlcNAc(b1-3)Gal(b1-4)GlcNAc(b1-2)Man(a1-3)[GlcNAc(b1-3)Gal(b1-4)GlcNAc(b1-3)Gal(b1-4)GlcNAc(b1-3)Gal(b1-4)GlcNAc(b1-2)Man(a1-6)]Man(b1-4)GlcNAc(b1-4)[Fuc(a1-6)]GlcNAc
Procedure, shortened: as §1

[9] = biological target: GlcNAc(b1-3)Gal(b1-4)GlcNAc(b1-3)Gal(b1-4)GlcNAc(b1-3)Gal(b1-4)GlcNAc(b1-2)[GlcNAc(b1-3)Gal(b1-4)GlcNAc(b1-3)Gal(b1-4)GlcNAc(b1-3)Gal(b1-4)GlcNAc(b1-6)]Man(a1-6)[GlcNAc(b1-3)Gal(b1-4)GlcNAc(b1-3)Gal(b1-4)GlcNAc(b1-3)Gal(b1-4)GlcNAc(b1-2)Man(a1-3)]Man(b1-4)GlcNAc(b1-4)[Fuc(a1-6)]GlcNAc
Procedure, shortened: as §1

[10] = biological target: GlcNAc(b1-3)Gal(b1-4)GlcNAc(b1-3)Gal(b1-4)GlcNAc(b1-3)Gal(b1-4)GlcNAc(b1-3)Gal(b1-4)GlcNAc(b1-2)Man(a1-3)[GlcNAc(b1-3)Gal(b1-4)GlcNAc(b1-3)Gal(b1-4)GlcNAc(b1-3)Gal(b1-4)GlcNAc(b1-3)Gal(b1-4)GlcNAc(b1-2)Man(a1-6)]Man(b1-4)GlcNAc(b1-4)GlcNAc
Procedure, shortened: as §1

[11] = biological target: GlcNAc(b1-3)Gal(b1-4)GlcNAc(b1-3)Gal(b1-4)GlcNAc(b1-3)Gal(b1-4)GlcNAc(b1-3)Gal(b1-4)GlcNAc(b1-2)Man(a1-3)[GlcNAc(b1-3)Gal(b1-4)GlcNAc(b1-3)Gal(b1-4)GlcNAc(b1-3)Gal(b1-4)GlcNAc(b1-3)Gal(b1-4)GlcNAc(b1-2)Man(a1-6)]Man(b1-4)GlcNAc(b1-4)[Fuc(a1-6)]GlcNAc
Procedure, shortened: as §1

[12] = biological target: GlcNAc(b1-3)Gal(b1-4)GlcNAc(b1-3)Gal(b1-4)GlcNAc(b1-3)Gal(b1-4)GlcNAc(b1-3)Gal(b1-4)GlcNAc(b1-2)[GlcNAc(b1-3)Gal(b1-4)GlcNAc(b1-3)Gal(b1-4)GlcNAc(b1-3)Gal(b1-4)GlcNAc(b1-3)Gal(b1-4)GlcNAc(b1-6)]Man(a1-6)[GlcNAc(b1-3)Gal(b1-4)GlcNAc(b1-3)Gal(b1-4)GlcNAc(b1-3)Gal(b1-4)GlcNAc(b1-3)Gal(b1-4)GlcNAc(b1-2)Man(a1-3)]Man(b1-4)GlcNAc(b1-4)[Fuc(a1-6)]GlcNAc
Procedure, shortened: as §1

[13] = biological target: GlcNAc(b1-3)Gal(b1-4)GlcNAc(b1-3)Gal(b1-4)GlcNAc(b1-3)GalNAc
Procedure, shortened: as §1

[14] = biological target: GlcNAc(b1-3)Gal(b1-4)GlcNAc(b1-3)GalNAc
Procedure, shortened: as §1

[15] = biological target: GlcNAc(b1-3)Gal(b1-4)GlcNAc(b1-3)[GlcNAc(b1-3)Gal(b1-4)GlcNAc(b1-3)]GalNAc
Procedure, shortened: as §1

[16] = biological target: GlcNAc(b1-3)Gal(b1-4)GlcNAc(b1-6)[Gal(b1-3)]GalNAc
Procedure, shortened: as §1

[17] = biological target: GlcNAc(b1-3)Gal(b1-4)GlcNAc(b1-6)[GlcNAc(b1-3)Gal(b1-3)]GalNAc
Procedure, shortened: as §1

[18] = biological target: GlcNAc(b1-3)Gal(b1-4)GlcNAc(b1-6)[GlcNAc(b1-3)]Gal(b1-4)GlcNAc
Procedure, shortened: as §1

[19] = biological target: GlcNAc(b1-3)GalNAc
Procedure, shortened: as §1

[20] = biological target: GlcNAc(b1-3)Man
Procedure, shortened: as §1

[21] = biological target: GlcNAc(b1-3)[GlcNAc(b1-4)][GlcNAc(b1-6)]GlcNAc
Procedure, shortened: as §1

[22] = biological target: GlcNAc(b1-3)[GlcNAc(b1-6)]Gal(b1-4)GlcNAc
Procedure, shortened: as §1

[23] = biological target: GlcNAc(b1-3)[GlcNAc(b1-6)]GalNAc
Procedure, shortened: as §1

[24] = biological target: GlcNAc(b1-4)Gal(b1-4)GlcNAc
Procedure, shortened: as §1

[25] = biological target: GlcNAc(b1-4)GlcNAc
Procedure, shortened: as §1

[26] = biological target: GlcNAc(b1-4)GlcNAc(b1-4)GlcNAc
Procedure, shortened: as §1

[27] = biological target: GlcNAc(b1-4)GlcNAc(b1-4)GlcNAc(b1-4)GlcNAc(b1-4)GlcNAc
Procedure, shortened: as §1

[28] = biological target: GlcNAc(b1-4)GlcNAc(b1-4)GlcNAc(b1-4)GlcNAc(b1-4)GlcNAc(b1-4)GlcNAc
Procedure, shortened: as §1

[29] = biological target: GlcNAc(b1-4)[GlcNAc(b1-6)]GalNAc
Procedure, shortened: as §1

[30] = biological target: GlcNAc(b1-6)Gal(b1-4)GlcNAc
Procedure, shortened: as §1

[31] = biological target: GlcNAc(b1-6)GalNAc
Procedure, shortened: as §1

[32] = biological target: GlcNAc3Prop(b1-4)GlcNAc
Procedure, shortened: as §1

[33] = biological target: GlcNAc6S(b1-3)Gal(b1-4)GlcNAc
Procedure, shortened: as §1

[34] = biological target: Kdn(a2-3)Gal(b1-3)GalNAc
Procedure, shortened: as §1

[35] = biological target: Kdn(a2-3)Gal(b1-3)GlcNAc
Procedure, shortened: as §1

[36] = biological target: Kdn(a2-3)Gal(b1-4)Glc
Procedure, shortened: as §1

[37] = biological target: Kdn(a2-3)Gal(b1-4)GlcNAc
Procedure, shortened: as §1

[38] = biological target: Kdn(a2-3)Gal(b1-4)[Fuc(a1-3)]GlcNAc
Procedure, shortened: as §1

B1: PpFlo2 (Pichia pastoris) (protein)
chain: MGSSHHHHHHSSGLVPRGSHMDDSGNGDNSDTAYGCDITTNAVDGFDATIYQYNANDLRLIRDPTFMSTGYLGRNVLNKISGVTVPGFNIWNPSSRTATVYGVKNVNYYNMVLELKGYFKADVSGDYKLTLSHIDDSSMLFFGKETAFKCCDAGSIPLNEAPTDYSLFTIKPSNQVNSEVISATQYLEAGKYYPVRIVFVNALERARFDFKLTIPSGAVLDDFQNYIYQFGDLDENSCHE
For B1, the “glycan array binding signal (z-score)” value [1] was 4.49, the “glycan array binding signal (z-score)” value [2] was 3.71 and the “glycan array binding signal (z-score)” value [3] was 3.53. For the same binder, the “glycan array binding signal (z-score)” value [4] was 3.9, the “glycan array binding signal (z-score)” value [5] was 6.15 and the “glycan array binding signal (z-score)” value [6] was 3.27. For the same binder, the “glycan array binding signal (z-score)” value [7] was 4.24, the “glycan array binding signal (z-score)” value [8] was 7.22 and the “glycan array binding signal (z-score)” value [9] was 3.81. For the same binder, the “glycan array binding signal (z-score)” value [10] was 7.34, the “glycan array binding signal (z-score)” value [11] was 7.63 and the “glycan array binding signal (z-score)” value [12] was 4.18. The “glycan array binding signal (z-score)” value [13] was 1.35, the “glycan array binding signal (z-score)” value [14] was 2.81 and the “glycan array binding signal (z-score)” value [15] was 4.33. For the same binder, the “glycan array binding signal (z-score)” value [16] was 2.11, the “glycan array binding signal (z-score)” value [17] was 3.35 and the “glycan array binding signal (z-score)” value [18] was 2.77. The “glycan array binding signal (z-score)” value [19] was 1.91, the “glycan array binding signal (z-score)” value [20] was 3.61 and the “glycan array binding signal (z-score)” value [21] was 0.061. The “glycan array binding signal (z-score)” value [22] was 2.55, the “glycan array binding signal (z-score)” value [23] was 2.08 and the “glycan array binding signal (z-score)” value [24] was 0.414. For the same binder, the “glycan array binding signal (z-score)” value [25] was 0.572, the “glycan array binding signal (z-score)” value [26] was 0.65 and the “glycan array binding signal (z-score)” value [27] was 0.471. For the same binder, the “glycan array binding signal (z-score)” value [28] was 0.18, the “glycan array binding signal (z-score)” value [29] was 0.407 and the “glycan array binding signal (z-score)” value [30] was 0.578. The “glycan array binding signal (z-score)” value [31] was 0.967, the “glycan array binding signal (z-score)” value [32] was 0.182 and the “glycan array binding signal (z-score)” value [33] was -0.251. The “glycan array binding signal (z-score)” value [34] was -0.29, the “glycan array binding signal (z-score)” value [35] was -0.298 and the “glycan array binding signal (z-score)” value [36] was -0.297. The “glycan array binding signal (z-score)” value [37] was -0.299 and the “glycan array binding signal (z-score)” value [38] was -0.292.
